{"source": "paper PMC4336329", "about": "(PLoS ONE, 2015)", "note": "The campaign covered roughly 310,000 compounds. About 14,000 (4.5%) showed an effect of 50% or more. Effects have a minus sign here. The list shows a part of the results.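 Further: peak tail current of the secondary pulse compared with the same well before compound.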"}
{"biological_target": "human ether-à-go-go-related gene (hERG) potassium channel (human, UniProt Q12809)", "sequence (Q12809 whole entry, looked up)": "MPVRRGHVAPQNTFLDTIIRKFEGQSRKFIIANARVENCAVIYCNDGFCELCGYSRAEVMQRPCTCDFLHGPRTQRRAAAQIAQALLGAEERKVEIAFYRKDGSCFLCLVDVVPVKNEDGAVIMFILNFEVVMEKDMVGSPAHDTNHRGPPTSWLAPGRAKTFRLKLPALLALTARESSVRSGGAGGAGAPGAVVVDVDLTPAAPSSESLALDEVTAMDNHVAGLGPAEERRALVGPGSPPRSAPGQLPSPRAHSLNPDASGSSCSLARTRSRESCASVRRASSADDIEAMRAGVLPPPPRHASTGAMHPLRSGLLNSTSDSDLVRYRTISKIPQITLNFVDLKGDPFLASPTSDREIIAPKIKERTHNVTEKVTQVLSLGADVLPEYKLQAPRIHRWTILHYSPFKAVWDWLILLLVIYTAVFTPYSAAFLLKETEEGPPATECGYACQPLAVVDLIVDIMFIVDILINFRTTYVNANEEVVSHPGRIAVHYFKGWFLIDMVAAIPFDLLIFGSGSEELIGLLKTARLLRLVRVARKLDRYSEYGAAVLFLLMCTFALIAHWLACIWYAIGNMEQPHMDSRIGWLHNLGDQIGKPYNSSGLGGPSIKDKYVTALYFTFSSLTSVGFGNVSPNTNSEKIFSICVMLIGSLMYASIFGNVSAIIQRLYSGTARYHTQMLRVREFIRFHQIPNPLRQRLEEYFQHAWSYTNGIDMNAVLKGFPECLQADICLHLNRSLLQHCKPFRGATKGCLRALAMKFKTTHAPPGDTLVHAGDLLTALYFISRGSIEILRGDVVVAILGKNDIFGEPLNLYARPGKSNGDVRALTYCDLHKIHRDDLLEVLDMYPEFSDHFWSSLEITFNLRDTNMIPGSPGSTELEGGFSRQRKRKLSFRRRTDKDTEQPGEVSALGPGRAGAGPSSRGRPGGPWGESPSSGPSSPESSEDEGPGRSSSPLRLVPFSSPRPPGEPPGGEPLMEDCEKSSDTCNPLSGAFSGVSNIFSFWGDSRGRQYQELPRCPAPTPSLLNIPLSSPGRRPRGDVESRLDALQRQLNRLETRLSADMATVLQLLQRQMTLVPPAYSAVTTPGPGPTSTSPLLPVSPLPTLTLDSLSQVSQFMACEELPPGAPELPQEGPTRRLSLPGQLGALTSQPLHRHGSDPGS", "assay": "primary screen, population patch clamp on CHO cells stably expressing hERG", "units": {"hERG current change (%, negative = inhibition) at 10uM": "%"}}
{"smiles": "CCOc1ccccc1C(=O)Nc1nnc(C(C)C)s1", "hERG current change (%, negative = inhibition) at 10uM": -1.92}
{"smiles": "Cc1nc(SCc2ccc(F)cc2)n[nH]1", "hERG current change (%, negative = inhibition) at 10uM": 19.2}
{"smiles": "COCCCNC(=S)NNC(=O)c1ccc2c(c1)OCO2", "hERG current change (%, negative = inhibition) at 10uM": -8.49}
{"smiles": "CC1CN(/C=C/C(=O)C(F)(F)F)CC(C)O1", "note": "(centres unmarked)", "hERG current change (%, negative = inhibition) at 10uM": 25.9}
{"smiles": "CCOc1ccc(NC(=O)CSc2ncnc3c2sc2ccccc23)cc1", "hERG current change (%, negative = inhibition) at 10uM": 9.4}
{"smiles": "COc1ccc([N+](=O)[O-])cc1NC(=O)C1CCCN1S(=O)(=O)c1cccs1", "note": "(centres unmarked)", "hERG current change (%, negative = inhibition) at 10uM": -18.1}
{"smiles": "Cc1ccc(-n2nc3c(c2NC(=O)C(C)C)CS(=O)(=O)C3)c(C)c1", "hERG current change (%, negative = inhibition) at 10uM": 17.2}
{"smiles": "Cl.O=C(O)CCN1CCOCC1", "hERG current change (%, negative = inhibition) at 10uM": 19.8}
{"smiles": "Cc1ccc(S(=O)(=O)CCC(=O)OCC(=O)Nc2cc(S(=O)(=O)N3CCOCC3)ccc2C)cc1", "hERG current change (%, negative = inhibition) at 10uM": -30.2}
{"smiles": "CCCCN(CC)S(=O)(=O)c1ccccc1", "hERG current change (%, negative = inhibition) at 10uM": -18.3}
{"smiles": "O=S(=O)(N1CCCCC1)N1CCNCC1", "hERG current change (%, negative = inhibition) at 10uM": 6.92}
{"smiles": "COc1ccc(OC)c(CN2CCN(C(=O)c3cc4ccccc4cc3O)CC2)c1", "hERG current change (%, negative = inhibition) at 10uM": -7.39}
{"smiles": "CCOC(=O)c1c2ccc(OCC(=O)N/N=C/c3ccc(C)cc3)cc2n2ccccc12", "hERG current change (%, negative = inhibition) at 10uM": -2.23}
{"smiles": "O=C(NCCc1cccnc1)c1cc(COc2ccc(F)cc2F)on1", "hERG current change (%, negative = inhibition) at 10uM": -20}
{"smiles": "COc1ccc(C(=O)NCCS(=O)(=O)NCCc2ccccc2)cc1", "hERG current change (%, negative = inhibition) at 10uM": -13.2}
{"smiles": "COc1ccc2[nH]c(C(=O)O)c(NS(=O)(=O)c3ccc(OC)c(OC)c3)c2c1", "hERG current change (%, negative = inhibition) at 10uM": -1.22}
{"smiles": "CCN(CC)CCNC(=O)c1ccccc1C(=O)c1ncc[nH]1", "hERG current change (%, negative = inhibition) at 10uM": -4.65}
{"smiles": "Cc1c(/C(O)=C2/C(=O)C(=O)N(CCN3CCOCC3)C2c2cccs2)cnn1-c1ccccc1", "note": "(centres unmarked)", "hERG current change (%, negative = inhibition) at 10uM": 13.6}
{"smiles": "CC(Cc1c[nH]c2ccccc12)NC(N)=O", "note": "(centres unmarked)", "hERG current change (%, negative = inhibition) at 10uM": -11.7}
{"smiles": "COc1cccc(OCC(=O)Nc2ccccc2-c2ccccc2)c1", "hERG current change (%, negative = inhibition) at 10uM": 9.57}
{"smiles": "Cc1ccc(-c2csc3n[nH]c(=S)n23)cc1", "hERG current change (%, negative = inhibition) at 10uM": 8.85}
{"smiles": "CCOc1cc(/C=C2\\SC(=O)N(c3ccc(O)cc3)C2=O)ccc1O", "hERG current change (%, negative = inhibition) at 10uM": 3.28}
{"smiles": "O=C1C(c2ccc(F)cc2)N(C2CCCCC2)C(=O)CN1C1CCCC1", "note": "(centres unmarked)", "hERG current change (%, negative = inhibition) at 10uM": -34.1}
{"smiles": "COc1cccc(Nc2ncnc3c2cnn3C)c1", "hERG current change (%, negative = inhibition) at 10uM": 9.2}
{"smiles": "C/C=C/C=C/C(=O)N1CC[C@]23c4ccccc4N[C@H]4N(C)c5cccc6c5[C@]42CCN([C@H]6C2OC2(C)C)[C@H]13", "note": "(some centres unmarked)", "hERG current change (%, negative = inhibition) at 10uM": -8.01}
{"smiles": "O=C(COc1ccc(Cl)cc1)NCCc1ccccn1", "hERG current change (%, negative = inhibition) at 10uM": 32.5}
{"smiles": "Cn1c(COc2ccccc2)nnc1SCC(=O)Nc1ccc2c(c1)OCO2", "hERG current change (%, negative = inhibition) at 10uM": -12.5}
{"smiles": "Cn1c(Cc2cccs2)nnc1SCc1nc2ccccc2[nH]1", "hERG current change (%, negative = inhibition) at 10uM": 6.36}
{"smiles": "O=C(Nc1ccc2c(c1)OCO2)c1ccc2c(c1)S(=O)(=O)c1ccccc1C2=O", "hERG current change (%, negative = inhibition) at 10uM": 12.5}
{"smiles": "COc1ccc(S(=O)(=O)N2CCCCC2)cc1C(=O)N1CCCC1", "hERG current change (%, negative = inhibition) at 10uM": 15.4}
{"smiles": "CC(CN(C)Cc1ccccc1)OC(=O)C1COc2ccccc2O1.Cl", "note": "(centres unmarked)", "hERG current change (%, negative = inhibition) at 10uM": 17.4}
{"smiles": "CCOC(=O)c1nc(N2CCN(C(=O)OCC)CC2)c2c3c(sc2n1)CCCC3", "hERG current change (%, negative = inhibition) at 10uM": -49.2}
{"smiles": "CCCS(=O)(=O)N1CCN(S(=O)(=O)c2ccccc2[N+](=O)[O-])CC1", "hERG current change (%, negative = inhibition) at 10uM": 1.43}
{"smiles": "Cc1ccc(S(=O)(=O)N(C)c2ccc(C(=O)NCC(c3cccs3)N3CCOCC3)cc2)cc1", "note": "(centres unmarked)", "hERG current change (%, negative = inhibition) at 10uM": 20.9}
{"smiles": "CC(C)OC(=O)c1ccc(NC(=O)c2cccc(-n3cnnn3)c2)cc1", "hERG current change (%, negative = inhibition) at 10uM": 14.8}
{"smiles": "O=C(O)c1cccc(N/N=C/c2cccc3ccccc23)c1", "hERG current change (%, negative = inhibition) at 10uM": 14.4}
{"smiles": "COc1cc(C(=O)NCCc2nc3ccccc3n2C)cc(OC)c1OC", "hERG current change (%, negative = inhibition) at 10uM": -10.8}
{"smiles": "Cc1ccc([N+](=O)[O-])cc1NC(=S)NC(=O)CC(C)(C)C", "hERG current change (%, negative = inhibition) at 10uM": 9.57}
{"smiles": "O=C(Nc1ccc(Cl)cc1C(=O)Nc1ccccn1)c1ccco1", "hERG current change (%, negative = inhibition) at 10uM": -39.9}
{"smiles": "Cc1ccccc1NC(=O)C1CCCN1S(=O)(=O)c1ccc2c(c1)n(C)c(=O)c(=O)n2C", "note": "(centres unmarked)", "hERG current change (%, negative = inhibition) at 10uM": -8.85}
{"smiles": "COC(=O)Cn1c(C)nc(=O)c(-c2ccccc2)c1C", "hERG current change (%, negative = inhibition) at 10uM": 14.9}
{"smiles": "[N-]=[N+]=CC(=O)c1ccnc(C(=O)C=[N+]=[N-])c1", "hERG current change (%, negative = inhibition) at 10uM": -10.2}
{"smiles": "O=C(CN(Cc1ccco1)C(=O)CNS(=O)(=O)c1ccc(Cl)cc1)NC1CCCCC1", "hERG current change (%, negative = inhibition) at 10uM": -1.19}
{"smiles": "CC(C)c1c(C(=O)N/N=C/c2c[nH]c3ccccc23)nnn1-c1nonc1N", "hERG current change (%, negative = inhibition) at 10uM": -6.99}
